B1: PhoQ; a variant is named by its letters at X, in order, P23837 (parent)
chain: MKKLLRLFFPLSLRVRFLLATAAVVLVLSLAYGMVALIGYSVSFDKTTFRLLRGESNLFYTLAKWENNKLHVELPENIDKQSPTMTLIYDENGQLLWAQRDVPWLMKMIQPDWLKSNGFHEIEADVNDTSLLLSGDHSIQQQLQEVREDDDDAEMTHSVAVNVYPATSRMPKLTIVVVDTIPVELKSSYMVWSWFIYVLSANLLLVIPLLWVAAWWSLRPIEALAKEVRELEEHNRELLNPATTRELTSLVRNLNRLLKSERERYDKYRTTLTDLTHSLKTPLXXLQXXLRSLRSEKMSVSDAEPVMLEQISRISQQIGYYLHRASMRGGTLLSRELHPVAPLLDNLTSALNKVYQRKGVNISLDISPEISFVGEQNDFVEVMGNVLDNACKYCLEFVEISARQTDEHLYIVVEDDGPGIPLSKREVIFDRGQRVDTLRPGQGVGLAVAREITEQYEGKIVAGESMLGGARMEVIFGRQHSAPKDE

This is an account of results in a collection of fitness landscapes (doi:10.1126/science.1257360).

The other results are listed elsewhere or left out.

The variants in the assay derive from B1. The assay can be described thus: enrichment ratio after two sorts for PhoP signalling (ratio (wild type AVST 3.29)); higher = more functional. The conditions noted are these: with PhoP (E. coli).
As for ALQH, the enrichment ratio is ≤ 0.25.
Under TINM stands 15.1.
As for FGST, the figure is ≤ 0.25; as for IQKN, ≤ 0.25; as for HGWF, ≤ 0.25.
As to ALRF, the enrichment ratio is ≤ 0.25.
As for TRRN, the figure is ≤ 0.25; as for TIDQ, ≤ 0.25; as for AEPC, ≤ 0.25.
For TMNQ, the enrichment ratio was found to be 4.45.
As for WDFE, the figure is ≤ 0.25.
For the variant NPQP, the enrichment ratio was ≤ 0.25.
Under KPYY stands ≤ 0.25.
As for EEQV, the figure is ≤ 0.25; as for PVLG, ≤ 0.25.
Under GEKS stands ≤ 0.25; under RIGL, ≤ 0.25; under GLVS, ≤ 0.25.
With GVCA, the enrichment ratio is ≤ 0.25.
Under QNNS stands ≤ 0.25; under KFMM, ≤ 0.25; under ISQL, ≤ 0.25.
Under YPAH stands ≤ 0.25.
Consider PVLK, for which the enrichment ratio is ≤ 0.25.
As for CTTL, the figure is ≤ 0.25; as for SRIR, ≤ 0.25; as for HEIL, ≤ 0.25.
As for ATDM, the figure is ≤ 0.25.
Take HLPP: the enrichment ratio was ≤ 0.25.
Regarding PDCM, the enrichment ratio is ≤ 0.25.
Take MSLD: the enrichment ratio was ≤ 0.25.
As for RCPI, the figure is ≤ 0.25.
Under HANR stands ≤ 0.25; under WVVL, ≤ 0.25.
Under VYQI stands ≤ 0.25.
Take SIGE: the enrichment ratio was 16.9.
Under KQND stands ≤ 0.25; under FYYK, ≤ 0.25.
Under YICT stands ≤ 0.25.
GPLR: the enrichment ratio is ≤ 0.25.
Under PAFT stands ≤ 0.25; under YFNE, ≤ 0.25; under SNSH, 9.5.
As to WRIM, the enrichment ratio was ≤ 0.25.
As for KKVI, the figure is ≤ 0.25; as for AKQT, ≤ 0.25.
Under SYAH stands ≤ 0.25.
As for FCQW, the figure is ≤ 0.25; as for YASD, ≤ 0.25; as for GYHG, ≤ 0.25.
Turning to GPCE, the enrichment ratio is ≤ 0.25.
Under HTNS stands ≤ 0.25; under VPYP, ≤ 0.25.
Under ICKP stands ≤ 0.25; under ADHW, ≤ 0.25.
For the variant GHQF, the enrichment ratio is ≤ 0.25.
As to DLDG, the enrichment ratio is ≤ 0.25.
As for MIFD, the figure is ≤ 0.25.
Under DWND stands ≤ 0.25; under VNAD, ≤ 0.25.
Consider YHTE, for which the enrichment ratio was ≤ 0.25.
As for MGDW, the figure is ≤ 0.25; as for RDWL, ≤ 0.25; as for KHAD, ≤ 0.25.
As for LTVD, the figure is ≤ 0.25; as for WPCV, ≤ 0.25; as for ILAH, ≤ 0.25.
For HVSC, the enrichment ratio is ≤ 0.25.
As for NSRP, the figure is ≤ 0.25.
As for RNDW, the figure is ≤ 0.25; as for ARHN, ≤ 0.25; as for DVWS, ≤ 0.25.
Under HMKQ stands ≤ 0.25; under GVQR, ≤ 0.25; under HESH, ≤ 0.25.
Consider SKAM, for which the enrichment ratio was determined as 28.
With PHSE, the enrichment ratio is ≤ 0.25.
As for LYIP, the figure is ≤ 0.25.
Under NNFP stands ≤ 0.25; under FGIV, 2.4.
Under WVHN stands ≤ 0.25; under GKEC, ≤ 0.25.
Regarding FSPK, the enrichment ratio is ≤ 0.25.
Under LKPN stands ≤ 0.25; under EKHK, ≤ 0.25; under TQVE, 3.84.
As to GNAM, the enrichment ratio turned out to be 35.8.
As for YDQQ, the enrichment ratio was ≤ 0.25.
Under GCYS stands ≤ 0.25; under NPQF, ≤ 0.25; under RSKA, ≤ 0.25.
In the case of TRCV, the enrichment ratio was 5.74.
Under TRQI stands ≤ 0.25; under EAIF, ≤ 0.25.
As for HSMM, the figure is 3.98; as for DYPI, ≤ 0.25; as for KDPM, ≤ 0.25.
Under KARW stands ≤ 0.25.
Take LPCA: the enrichment ratio is ≤ 0.25.
As for VGST, the figure is ≤ 0.25; as for EFDN, ≤ 0.25; as for AIGD, ≤ 0.25.
As to DQDV, the enrichment ratio is ≤ 0.25.
As for ATVN, the figure is 19.4.
Under AHYP stands ≤ 0.25; under SHPI, ≤ 0.25; under ASLE, 5.81.
As for SMYM, the figure is 2.21; as for LQPL, ≤ 0.25.
Regarding CTLL, the enrichment ratio is 0.613.
As for TDLS, the figure is 18.
Under SSFM stands 5.86.
In the case of EEPP, the enrichment ratio is ≤ 0.25.
Under EAYK stands ≤ 0.25; under LGGQ, ≤ 0.25; under MKQA, ≤ 0.25.
Under MYMW stands ≤ 0.25.
Consider GYGV, for which the enrichment ratio was ≤ 0.25.
As for PENN, the figure is ≤ 0.25; as for LSST, ≤ 0.25.
As for HVLK, the enrichment ratio is ≤ 0.25.
Under SPHY stands ≤ 0.25; under HPKI, ≤ 0.25.
In the case of EYGV, the enrichment ratio is ≤ 0.25.
Under RCIF stands ≤ 0.25; under VWVF, ≤ 0.25; under AYMG, ≤ 0.25.
As for FAWC, the figure is ≤ 0.25.
As for VWID, the figure is ≤ 0.25; as for THCY, 1.87.
As for LMRQ, the enrichment ratio was ≤ 0.25.
As for SWWD, the figure is ≤ 0.25; as for RTCY, ≤ 0.25.
Under KDQF stands ≤ 0.25; under RFWI, ≤ 0.25; under WRMN, ≤ 0.25.
As for LAWD, the figure is ≤ 0.25; as for WYRL, ≤ 0.25; as for AIYR, ≤ 0.25.
Consider IQPC, for which the enrichment ratio is ≤ 0.25.
Under SWSQ stands ≤ 0.25; under PMFT, ≤ 0.25; under WNKD, ≤ 0.25.
As for WYTW, the figure is ≤ 0.25; as for LHGL, ≤ 0.25; as for PLKW, ≤ 0.25.
Under MPKF stands ≤ 0.25; under KEAM, ≤ 0.25.
Turning to KAAP, the enrichment ratio is ≤ 0.25.
Under YDGD stands ≤ 0.25; under NWLK, ≤ 0.25.
As for DLHN, the enrichment ratio is ≤ 0.25.
VWDI: the enrichment ratio was ≤ 0.25.
